# This is a selection; strong and weak results do not stand in their true shares. The list includes weakly bound sequences.
# Tests used:
# Assay in all cases: protein-binding microarray (PBM)
# Details in all cases: PBM: ~300 nM protein, 6 mM HEPES pH 7.8, 80 mM KCl, 0.5 mM EDTA, 0.5 mM EGTA, 6% glycerol, 35 ng/ul poly-dIdC, 1% milk, 1 h, room temperature; Ap Aiptasia and Nv Nematostella (sea anemones) / Co Capsaspora / Aq Amphimedon (sponge) / Dm Drosophila / Hu human; RHD is the Rel homology domain; high values mean tight binding; most listed sequences are background and not binding sites; double strand, one strand shown
# GST-Ap-NF-kB RHD = target: T1, GST-Ap-NF-kB RHD (UniProt A0A913YAJ5)
# T1 sequence: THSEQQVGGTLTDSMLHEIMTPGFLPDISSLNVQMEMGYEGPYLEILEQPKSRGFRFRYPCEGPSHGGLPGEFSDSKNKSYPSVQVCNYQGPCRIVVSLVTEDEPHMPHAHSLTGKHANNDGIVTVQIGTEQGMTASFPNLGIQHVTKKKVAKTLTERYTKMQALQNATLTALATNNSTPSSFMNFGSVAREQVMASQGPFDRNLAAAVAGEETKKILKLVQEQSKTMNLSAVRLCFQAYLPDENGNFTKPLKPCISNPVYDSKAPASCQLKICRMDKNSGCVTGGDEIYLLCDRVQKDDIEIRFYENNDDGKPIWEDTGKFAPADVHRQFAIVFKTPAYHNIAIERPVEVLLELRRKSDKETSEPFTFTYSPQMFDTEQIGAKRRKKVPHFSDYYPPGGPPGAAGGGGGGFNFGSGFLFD
# [1] = target: T2, GST-Nv-NF-kB (Cys allele) (UniProt E5G601)
# T2 sequence: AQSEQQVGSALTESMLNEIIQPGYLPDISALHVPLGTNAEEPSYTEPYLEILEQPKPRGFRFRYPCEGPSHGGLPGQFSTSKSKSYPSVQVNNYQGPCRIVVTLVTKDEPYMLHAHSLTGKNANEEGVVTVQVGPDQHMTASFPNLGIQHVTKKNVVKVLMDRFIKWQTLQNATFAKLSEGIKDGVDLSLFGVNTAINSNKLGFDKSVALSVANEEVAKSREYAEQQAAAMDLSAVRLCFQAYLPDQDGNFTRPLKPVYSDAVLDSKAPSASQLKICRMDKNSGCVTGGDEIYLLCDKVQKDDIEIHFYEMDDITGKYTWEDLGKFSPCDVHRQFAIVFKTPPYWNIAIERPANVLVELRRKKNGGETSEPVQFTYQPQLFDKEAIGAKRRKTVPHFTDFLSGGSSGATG
# GST-Co-NF-kB = target: T3, GST-Co-NF-kB (UniProt F1ARL5)
# T3 sequence: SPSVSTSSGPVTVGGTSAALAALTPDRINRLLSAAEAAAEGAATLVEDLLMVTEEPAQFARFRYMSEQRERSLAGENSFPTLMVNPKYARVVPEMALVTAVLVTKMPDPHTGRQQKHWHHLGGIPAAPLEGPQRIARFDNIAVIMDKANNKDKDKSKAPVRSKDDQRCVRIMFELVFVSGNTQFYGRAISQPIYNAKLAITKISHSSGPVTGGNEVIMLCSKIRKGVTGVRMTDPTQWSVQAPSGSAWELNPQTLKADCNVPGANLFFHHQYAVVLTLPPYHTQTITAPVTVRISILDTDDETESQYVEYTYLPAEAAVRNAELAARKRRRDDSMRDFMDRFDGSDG
# GST-Dm-Relish = target: T4, GST-Dm-Relish (UniProt Q94527)
# T4 sequence: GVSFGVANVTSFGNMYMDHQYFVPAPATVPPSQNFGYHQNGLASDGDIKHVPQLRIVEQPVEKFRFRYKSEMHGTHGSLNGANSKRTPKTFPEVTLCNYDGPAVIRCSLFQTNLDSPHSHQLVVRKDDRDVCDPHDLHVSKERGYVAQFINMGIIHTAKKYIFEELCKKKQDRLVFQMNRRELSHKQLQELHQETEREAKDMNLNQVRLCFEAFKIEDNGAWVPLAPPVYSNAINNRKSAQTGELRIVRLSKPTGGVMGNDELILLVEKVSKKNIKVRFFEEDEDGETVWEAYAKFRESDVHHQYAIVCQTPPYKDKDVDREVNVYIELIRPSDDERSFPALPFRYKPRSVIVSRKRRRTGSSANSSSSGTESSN
# GST-Aq-NF-kB = target: T5, GST-Aq-NF-kB (UniProt A9Y5G7)
# T5 sequence: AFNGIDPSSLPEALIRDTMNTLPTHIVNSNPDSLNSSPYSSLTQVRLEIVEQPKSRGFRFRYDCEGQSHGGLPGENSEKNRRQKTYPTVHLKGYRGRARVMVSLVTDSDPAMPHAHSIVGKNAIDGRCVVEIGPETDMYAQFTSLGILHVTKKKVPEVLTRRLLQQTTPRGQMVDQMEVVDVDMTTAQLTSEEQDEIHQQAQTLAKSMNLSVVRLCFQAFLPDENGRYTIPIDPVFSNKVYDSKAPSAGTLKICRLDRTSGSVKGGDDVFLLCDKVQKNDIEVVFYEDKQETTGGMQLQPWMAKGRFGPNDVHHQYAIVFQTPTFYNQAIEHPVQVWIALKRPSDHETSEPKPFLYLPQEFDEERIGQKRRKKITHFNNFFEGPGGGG
Sequence,binding signal (GST-Ap-NF-kB RHD) [z-score],binding signal [1] [z-score],binding signal (GST-Co-NF-kB) [z-score],binding signal (GST-Dm-Relish) [z-score],binding signal (GST-Aq-NF-kB) [z-score]
CCGATTAACATCAGTTTAGTTCGTGATGTTAATCGGGTCTTGATTCGCTTGACGCTGCTG,-0.712,0.0638,0.612,-0.0625,-0.511
CCGATTAACATCATACGAGACCCTGATGTTAATCGGGTCTTGATTCGCTTGACGCTGCTG,0.905,-0.0643,-0.109,0.301,0.541
CCGATTAACATCAATTTCCATAATGATGTTAATCGGGTCTTGATTCGCTTGACGCTGCTG,-0.664,0.214,0.0777,0.637,-0.13
CCGATTAACATCAGTCTATGTGCTGATGTTAATCGGGTCTTGATTCGCTTGACGCTGCTG,-0.477,-0.868,-0.971,-0.641,-0.399
CCGATTAACATCAGCGTAGCGAATGATGTTAATCGGGTCTTGATTCGCTTGACGCTGCTG,-0.355,-0.542,-1.53,-0.716,-0.626
CCGATTAACATCAGAGAAACCAATGATGTTAATCGGGTCTTGATTCGCTTGACGCTGCTG,-0.0342,-0.154,-0.0331,-0.492,-0.225
CCGATTAACATCAAAAATATTAGTGATGTTAATCGGGTCTTGATTCGCTTGACGCTGCTG,-0.512,-0.362,0.308,0.569,-0.0225
CCGATTAACATCACGCGCGAATCTGATGTTAATCGGGTCTTGATTCGCTTGACGCTGCTG,0.24,-0.666,-0.778,-0.268,-0.384
CCGATTAACATCACGATCATGTTTGATGTTAATCGGGTCTTGATTCGCTTGACGCTGCTG,-0.639,-0.912,-0.222,-0.604,-0.478
CCGATTAACATCATAGTCTTTGTTGATGTTAATCGGGTCTTGATTCGCTTGACGCTGCTG,-0.0861,-0.672,-0.08,-0.638,-0.283
CCGATTAACATCACCTTAGGTTTTGATGTTAATCGGGTCTTGATTCGCTTGACGCTGCTG,0.2,0.0647,-0.0702,0.348,0.48
CCGATTAACATCAAAACGTACAGTGATGTTAATCGGGTCTTGATTCGCTTGACGCTGCTG,0.094,-0.231,0.137,0.698,-0.246
CCGATTAACATCACGTATCAAATTGATGTTAATCGGGTCTTGATTCGCTTGACGCTGCTG,-0.394,0.17,0.163,-0.167,-0.309
CCGATTAACATCAAGCCTCCATATGATGTTAATCGGGTCTTGATTCGCTTGACGCTGCTG,-0.679,-0.0119,-0.289,-0.369,-0.273
CCGATTAACATCAAAAACCTGGATGATGTTAATCGGGTCTTGATTCGCTTGACGCTGCTG,0.0865,-0.0887,0.382,-0.245,-0.0554
CCGATTAACATCAGGAATTTGCCTGATGTTAATCGGGTCTTGATTCGCTTGACGCTGCTG,-0.935,-0.447,-0.617,0.169,0.224
CCGATTAACATCAAATACGCGATTGATGTTAATCGGGTCTTGATTCGCTTGACGCTGCTG,-0.397,-0.564,-0.552,-0.659,-0.335
CCGATTAACATCACGTGTGTAGGTGATGTTAATCGGGTCTTGATTCGCTTGACGCTGCTG,0.571,0.71,0.467,0.985,0.356
CCGATTAACATCAGAAATTCCAATGATGTTAATCGGGTCTTGATTCGCTTGACGCTGCTG,-0.0239,-0.886,0.587,0.0329,0.303
CCGATTAACATCAGCAAATTTCCTGATGTTAATCGGGTCTTGATTCGCTTGACGCTGCTG,-0.062,-0.11,0.215,0.763,0.725
CCGATTAACATCAGAAATATTCCTGATGTTAATCGGGTCTTGATTCGCTTGACGCTGCTG,-0.206,0.508,-0.391,0.315,0.612
CCGATTAACATCAGTAACTGTACTGATGTTAATCGGGTCTTGATTCGCTTGACGCTGCTG,-1.01,-0.123,-0.153,0.0464,-0.339
CCGATTAACATCAGCACTTGGTTTGATGTTAATCGGGTCTTGATTCGCTTGACGCTGCTG,-0.0856,-0.201,-0.105,-0.528,-0.526
CCGATTAACATCAAAATTCCAGATGATGTTAATCGGGTCTTGATTCGCTTGACGCTGCTG,0.228,-0.0709,0.256,0.504,0.713
CCGATTAACATCAAAATTTCCGATGATGTTAATCGGGTCTTGATTCGCTTGACGCTGCTG,-0.469,0.233,0.307,0.473,0.933
CCGATTAACATCAGGCAATTCCATGATGTTAATCGGGTCTTGATTCGCTTGACGCTGCTG,-0.159,-0.358,-0.612,-0.0256,0.404
CCGATTAACATCACTCCTGAAACTGATGTTAATCGGGTCTTGATTCGCTTGACGCTGCTG,-0.521,-0.37,0.328,-0.545,-0.351
CCGATTAACATCACTAATCTTTTTGATGTTAATCGGGTCTTGATTCGCTTGACGCTGCTG,-0.562,-0.237,-0.44,0.144,-0.301

# Source: PMC5700166
